Some of the results follow. Each Rep nickase domain was tested in vitro on the same pool of single strands (3 µM enzyme, 1 h, 37 °C); shown is the middle of each 90-letter strand. Uncut reads are compared with the no-enzyme pool on a log2 scale; the lower, the more was cut; hits are not called. Because reads are shares of a total, they shift together, so uncut sequences can rise above 0 when many others are cut.
Columns and labels:
Experiment in all cases: uncleaved DNA left, log2 of reads against the no-enzyme library (log2 ratio); higher = less cleavage (more negative = more Rep cleavage of the k-mer); sequences stand for … in CTCGTCCG…ACCGGAGA
[1] = test system: T1, Rep nickase domain of Muscovy duck circovirus
T1 sequence (residues 1-111 of Rep, tag left off): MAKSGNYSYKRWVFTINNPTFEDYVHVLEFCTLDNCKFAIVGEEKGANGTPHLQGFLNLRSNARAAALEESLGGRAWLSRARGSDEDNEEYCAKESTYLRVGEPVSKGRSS
Method: (§1)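 A pool of 90-nt single-stranded DNAs with seven random bases just before the constant AC of the nick site (name = the seven bases) was cut by 3 µM recombinant His6-SUMO-tagged Rep nickase domain (300 nM DNA, 50 mM HEPES pH 8.0, 50 mM NaCl, 1 mM MnCl2, 1 h, 37 °C, three replicates). Uncut DNA was amplified and sequenced.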

[2] = test system: T2, Rep nickase domain of banana bunchy top virus
T2 sequence (residues 1-94 of Rep, tag left off): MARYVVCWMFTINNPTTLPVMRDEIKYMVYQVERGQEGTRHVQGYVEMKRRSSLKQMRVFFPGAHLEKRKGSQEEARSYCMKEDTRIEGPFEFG
Method: as §1

[3] = test system: T3, Rep nickase domain of cabbage leaf curl virus
T3 sequence (residues 1-116 of Rep, tag left off): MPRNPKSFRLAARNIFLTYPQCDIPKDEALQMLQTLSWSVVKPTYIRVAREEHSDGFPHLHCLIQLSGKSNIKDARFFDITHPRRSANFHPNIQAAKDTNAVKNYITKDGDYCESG
Method: as §1

[4] = test system: T4, Rep nickase domain of chickpea chlorotic dwarf virus
T4 sequence (residues 1-124 of Rep, tag left off): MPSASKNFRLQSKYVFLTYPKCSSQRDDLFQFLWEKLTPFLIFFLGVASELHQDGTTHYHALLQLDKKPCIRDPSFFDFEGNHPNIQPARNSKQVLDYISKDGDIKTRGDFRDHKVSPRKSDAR
Method: as §1

[5] = test system: T5, Rep nickase domain of faba bean necrotic yellows virus
T5 sequence (residues 1-98 of Rep, tag left off): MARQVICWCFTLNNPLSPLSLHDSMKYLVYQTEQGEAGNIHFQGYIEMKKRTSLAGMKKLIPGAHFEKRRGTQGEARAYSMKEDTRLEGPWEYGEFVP
Method: as §1

[6] = test system: T6, Rep nickase domain of maize striate mosaic virus
T6 sequence (residues 1-117 of Rep, tag left off): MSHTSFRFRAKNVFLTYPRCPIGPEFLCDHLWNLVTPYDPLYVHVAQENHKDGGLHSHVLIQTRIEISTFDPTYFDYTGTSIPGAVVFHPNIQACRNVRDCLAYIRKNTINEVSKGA
Method: as §1

[7] = test system: T7, Rep nickase domain of porcine circovirus 2
T7 sequence (residues 2-116 of Rep, tag left off): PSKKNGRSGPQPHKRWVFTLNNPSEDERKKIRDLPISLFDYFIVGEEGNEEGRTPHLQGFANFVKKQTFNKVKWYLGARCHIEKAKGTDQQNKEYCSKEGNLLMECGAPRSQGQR
Method: as §1

[8] = test system: T8, Rep nickase domain of tomato golden mosaic virus
T8 sequence (residues 1-124 of Rep, tag left off): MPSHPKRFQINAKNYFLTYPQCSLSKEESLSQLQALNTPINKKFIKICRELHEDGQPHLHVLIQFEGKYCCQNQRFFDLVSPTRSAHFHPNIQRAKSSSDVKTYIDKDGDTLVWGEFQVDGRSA
Method: as §1

[9] = test system: T9, Rep nickase domain of tomato yellow leaf curl virus
T9 sequence (residues 1-136 of Rep, tag left off): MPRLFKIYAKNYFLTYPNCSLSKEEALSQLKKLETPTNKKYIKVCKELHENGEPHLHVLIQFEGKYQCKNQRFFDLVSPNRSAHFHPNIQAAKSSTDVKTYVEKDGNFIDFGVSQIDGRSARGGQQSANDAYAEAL
Method: as §1

[10] = test system: T10, Rep nickase domain of wheat dwarf virus
T10 sequence (residues 1-137 of Rep, tag left off): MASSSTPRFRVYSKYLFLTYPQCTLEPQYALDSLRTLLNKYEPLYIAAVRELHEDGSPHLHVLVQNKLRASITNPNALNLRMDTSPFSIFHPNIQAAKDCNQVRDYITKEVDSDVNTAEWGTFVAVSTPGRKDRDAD
Method: as §1

| Sequence | uncleaved DNA left (log2) [1] | uncleaved DNA left (log2) [2] | uncleaved DNA left (log2) [3] | uncleaved DNA left (log2) [4] | uncleaved DNA left (log2) [5] | uncleaved DNA left (log2) [6] | uncleaved DNA left (log2) [7] | uncleaved DNA left (log2) [8] | uncleaved DNA left (log2) [9] | uncleaved DNA left (log2) [10] |
| --- | --- | --- | --- | --- | --- | --- | --- | --- | --- | --- |
| TATTCCC | -2.97 | -0.912 | 0.0555 | -0.677 | -0.0403 | -0.426 | -2.16 | -0.0229 | -0.027 | -0.0838 |
| TAATACT | -5.19 | -4.45 | -5.44 | -3.88 | -2.94 | -4.09 | -5.15 | -4.85 | -4.23 | -5.29 |
| TAAGTAG | -0.00484 | -0.0265 | -0.648 | -0.971 | 0.0718 | -1.2 | 0.167 | -0.00198 | 0.0733 | -0.117 |
| GCCACGC | -0.0436 | -0.0755 | -0.0798 | 0.0415 | -0.0973 | -0.534 | 0.136 | 0.0276 | -0.0673 | -0.0866 |
| GGTGGGA | 0.0836 | 0.0914 | 0.581 | 1.3 | -0.0104 | 1.75 | 0.227 | 0.0249 | 0.0268 | 0.128 |
| TGTCGCA | -0.00143 | 0.0351 | -0.126 | -0.686 | -0.025 | -0.878 | -0.122 | -0.0893 | 0.0566 | -0.107 |
| GCATCAT | 0.029 | 0.103 | 0.302 | 0.666 | -0.146 | 0.539 | 0.113 | 0.016 | 0.0787 | 0.114 |
| GTCATAA | 0.125 | 0.102 | 0.334 | 0.918 | 0.00259 | 1.77 | 0.179 | 0.156 | 0.198 | 0.0204 |
| TACAGAT | 0.105 | -0.0403 | -0.0669 | -0.26 | 0.103 | 0.991 | -0.234 | 0.0126 | -0.0641 | 0.0877 |
| GACGCCG | -0.0852 | 0.0111 | -0.6 | -0.45 | -0.00118 | -0.924 | 0.181 | 0.0803 | 0.00427 | -0.0537 |
| GTATGCA | -0.0777 | 0.0228 | 0.055 | 0.388 | 0.0442 | -0.201 | 0.0179 | 0.0394 | 0.054 | -0.0319 |
| CGAGCTA | 0.00886 | 0.0182 | -0.465 | -0.0784 | -0.0372 | 0.24 | -1 | -0.0354 | -0.114 | 0.0104 |
| GGGTCCT | -0.023 | 0.0361 | 0.755 | 1.74 | -0.0224 | 2.16 | -0.211 | 0.00926 | 0.0629 | 0.119 |
| CAATATA | -0.326 | -0.0655 | -1.51 | -2.74 | -0.0438 | -1.01 | -1.38 | -0.198 | -0.111 | -0.42 |
| TTTTCAT | -0.181 | 0.108 | 0.247 | -0.431 | 0.0691 | -0.0536 | -0.417 | -0.0159 | 0.27 | 0.136 |
| ATTATCC | -0.102 | 0.0394 | 0.0253 | -0.00189 | 0.0259 | -0.431 | 0.0152 | 0.0139 | 0.0387 | 0.112 |
| CCGCAAA | 0.139 | -0.112 | 0.116 | 0.0668 | 0.0338 | -0.654 | 0.148 | 0.098 | -0.127 | 0.062 |
| CCTGAGT | 0.0179 | 0.0284 | -0.3 | -0.629 | -0.00109 | -0.932 | -0.161 | -0.0432 | -0.0336 | -0.0496 |
| AGTTCGA | 0.0516 | -0.0184 | -0.394 | -0.662 | 0.0394 | -1.05 | -0.0786 | -0.0715 | 0.0323 | -0.0688 |
| GAGCACC | -0.0711 | 0.015 | 0.218 | 0.513 | -0.0843 | 0.753 | -0.0988 | -0.0603 | -0.00267 | 0.0341 |
| AGTAATC | 0.0301 | 0.00622 | 0.188 | 0.42 | 0.108 | -0.19 | -0.0368 | 0.0629 | 0.0469 | 0.0178 |
| CTTGACT | 0.0823 | -0.12 | -0.174 | -2.48 | 0.0631 | -0.373 | -1.7 | 0.0217 | -0.00491 | -0.0754 |
| GCCTCCA | -0.0528 | 0.00594 | 0.124 | -0.0349 | -0.0119 | 0.436 | -0.0744 | -0.0124 | -0.157 | -0.0542 |
| TGTAGGT | -0.0189 | -0.0963 | 0.278 | 0.99 | -0.0656 | 1.55 | -0.0806 | 0.0128 | -0.134 | -0.0284 |
| ACATGAA | 0.0109 | 0.0165 | -0.232 | -0.198 | 0.0518 | -0.789 | 0.154 | 0.023 | -0.0397 | -0.11 |
| GGAGTTA | -0.00219 | 0.0485 | 0.484 | 1.14 | -0.0547 | 1.83 | 0.0405 | 0.0588 | 0.0388 | 0.0856 |
| CAGCTTT | -0.0273 | -0.368 | -0.797 | -2.33 | -0.211 | -0.646 | -3.69 | -0.102 | 0.00382 | -0.299 |
| TAAAGGC | 0.046 | -0.0206 | -0.0615 | -0.141 | -0.0403 | -0.615 | 0.114 | 0.0209 | 0.0242 | 0.000267 |
| TCGAATG | -0.123 | -0.0947 | -0.103 | 0.562 | -0.162 | 1.54 | -0.0257 | -0.0901 | -0.129 | -0.193 |
| AGTGTGG | 0.0361 | 0.0428 | -0.168 | 0.0722 | -0.0423 | -0.273 | 0.163 | -0.0167 | -0.0893 | -0.0291 |

Reference: the supplement of paper PMC7826260
